# Results published in PubChem BioAssay AID504884 (Broad Institute, 2011).
# Out of some 360,000 compounds screened, about 230 (0.064%) were called active. The shares of active, inactive and inconclusive entries below differ from those in the screen. No stated cut-off is given here; in the data, active means activity above about 50% (passing the limit was not always enough); inconclusive means no clear call, values can overlap the other calls.
# Test system: DNA topoisomerase I (Yersinia pestis CO92)
# Assay: Yersinia pestis topoisomerase I inhibitors, primary screen, biochemical, cleavage product accumulation, plate reader, single point (AID 504884)
# Conditions: Y. pestis Topo-I cleavage product accumulation, at 10 µM, hits give high values
row,SMILES,activity
1,O=C(Nc1ccc(F)cc1Cl)c1ccc2c(=O)n3c(nc2c1)CCC3,inconclusive: 68.3%
2,C=CCOc1c(Br)cc(/C=C2\SC(=Nc3ccccc3)NC2=O)cc1OC,active: 57.5%
3,Cc1ccc(C(=O)COC(=O)CNC(=O)c2ccc(N3C(=O)c4ccccc4C3=O)cc2)cc1C,inconclusive: 52.3%
4,CN1C(=O)C(O)(CC(=O)c2ccncc2)c2ccccc21 (stereo unspecified),inconclusive: 137%
5,C=C(C)C(=O)NC1=NN(c2ccccc2)C(=O)C1,inactive: -1.44%
6,CC(C)(C)OC(=O)CC[C@@H](C(=O)NCCCCCCCCCCC(=O)N1CCN(C(=O)OC(C)(C)C)CC1)n1cc(CCCCCNC(=O)OC(C)(C)C)nn1,inconclusive: 136%
7,CSc1ccc(CN(C)C(=O)c2cc3ccccc3o2)cc1,active: 54.3%
8,OCC1OC(n2ccc3c2ncn2ncnc32)C(O)C1O (stereo unspecified),inactive: -0.202%
9,O=C1[C@H](Cc2ccccc2)NCC=CC[C@@H](c2ccc(Cl)cc2)N1Cc1ccc(Cl)cc1,inconclusive: 59.4%
10,CCCCN(C(=O)CSc1nnc(Nc2ccc(C)c(C)c2)s1)c1c(N)n(Cc2ccccc2)c(=O)[nH]c1=O,inconclusive: 61.4%
11,Cc1ccc(CSc2nc3ccsc3c(=O)n2Cc2ccccn2)cc1,inconclusive: 57.7%
12,C[C@]12C(=O)N(c3ccc(C(F)(F)F)cc3)C(=O)N1[C@H]1c3ccccc3OC[C@@H]1[C@H]2c1ccccc1,inconclusive: 55.4%
13,COc1cc(CNCc2ccc(OC)c(OC)c2OC)cc(OC)c1,inconclusive: 56.6%
14,CCOC(=O)c1ccccc1NC(=O)COC(=O)CCC1CCCC1,inconclusive: 50.8%
15,Cc1c(OCC(=O)C(C)(C)C)ccc2c(-c3ccccc3)cc(=O)oc12,active: 50.7%
16,C=CCNc1nc(N)c(C(=C(C#N)C#N)c2ccc(Br)cc2)s1,inconclusive: 62%
17,CCCc1cc(=O)oc2cc(C)cc(OC(C)C(=O)NCC3CCC(C(=O)O)CC3)c12 (stereo unspecified),inactive: 5.08%
18,Clc1cccc(CSc2nnc(-c3sccc3-n3cccc3)o2)c1,active: 57.8%
19,CCOc1ccc(Oc2ccc(S(=O)(=O)N3CCOCC3)cc2NC(=O)C2=COCCO2)cc1,active: 62%

row,SMILES,activity
1,CCOC(=O)c1cccc(-c2c(-c3ccccc3)ncc3cc(OC)c(OC)cc23)c1,inconclusive: 59%
2,CN(C)c1cccc2c(S(=O)(=O)Nc3ccccn3)cccc12,inactive: 1.61%
3,Cc1cc(C(=O)Cn2nc(C(=O)O)c3ccccc3c2=O)c(C)n1-c1ccc(F)cc1,inconclusive: 59.9%
4,O=C(Nc1ccn(CCCN(CCCn2ccc(NC(=O)OCc3ccccc3)nc2=O)CCc2cc3ccccc3[nH]2)c(=O)n1)OCc1ccccc1,active: 77%
5,O=C(NCCN1CCOCC1)c1ccc2c(c1)N(Cc1ccccc1F)C(=O)c1ccccc1S2,inactive: 16.8%
6,COc1ccc(S(=O)(=O)N2CCCCC2)cc1NC(=O)c1ccc(C)cc1,inactive: 8.03%
7,Cc1ccc(C(=O)c2sc3c(c2N)c(=O)[nH]c(=O)n3CCc2ccccc2)cc1,active: 160%
8,CN(C)/C=C1\C=C2C(=O)c3ccccc3N2C1=O,inactive: -9.43%
9,COC(=O)C1=C(c2ccc(F)cc2OCc2ccccc2)C[C@@H]2CC[C@H]1N2C(=O)NCc1ccc(Cl)cc1,inconclusive: 50.4%
10,O=C(O)Cn1c2c(c3ccccc31)CCCC2,inactive: -6.33%
11,CCOc1ccc2nc(N(CCCN(C)C)C(=O)c3ccc(C(=O)c4ccccc4)cc3)sc2c1,inconclusive: 203%
12,O=c1oc2cc(O)ccc2cc1-c1ccccc1,inactive: 3.59%
13,O=C(CSCc1cccc(Cl)c1)Nc1ccccc1-c1ccccc1,inconclusive: 55.3%
14,C=CCOc1ccc(/C=C/C(=O)OCC(=O)NCCCc2ccccc2)cc1,active: 52.6%
15,Cc1c(OCC(=O)NCCCN2CCOCC2)ccc2c1oc(=O)c1ccccc12,inactive: 18.1%
16,COc1ccc2c(c1OC)C(=O)OC2,inactive: -0.292%
17,CCOC(=O)Cn1c(S(=O)(=O)Cc2ccc(F)cc2)nc(-c2ccccc2)c1-c1ccccc1,active: 52%
18,O=C1OC(c2ccccc2)=NC12CC2c1ccc(Cl)cc1 (stereo unspecified),inactive: 7.62%
19,CCN(CC)S(=O)(=O)c1cc(C(=O)Nc2cccnc2Cl)ccc1Cl,inconclusive: 57.5%

row,SMILES,activity
1,COc1ccc2nc(SCC(=O)N3CCCCC3)c(C#N)cc2c1,inconclusive: 96.6%
2,C=C(Cl)COc1ccc2c(CCCC)cc(=O)oc2c1,inactive: 6.33%
3,CN1OC[C@@H]2CN(Cc3ccccc3)[C@H](c3cccc(-c4ccccc4)c3)C[C@@H]21,inconclusive: 50.6%
4,O=c1[nH]cnc2sc3c(c12)CCN(Cc1ccccc1)C3,inactive: -0.538%
5,N#CCC(=O)Nc1ccc(C(=O)NNC(=S)NC2CC2)cc1,inconclusive: 95%
6,O=C(c1ccc(Br)o1)N(Cc1ccccc1)Cc1ccccc1,inconclusive: 55.8%
7,Nc1ccccc1SCC(O)Cn1ccc2ccccc21 (stereo unspecified),inconclusive: 59.8%
8,CN(C)S(=O)(=O)N1CCCC(C(=O)c2ccc(-c3ccccc3)c(F)c2)C1 (stereo unspecified),inconclusive: 53%
9,Cc1ccc(OCc2cc(C(=O)N3CCc4sccc4C3)no2)cc1C,active: 53.6%
10,Cn1cc(-c2cccc(Cl)c2)cc(C#N)c1=O,inactive: -2.4%
11,Fc1ccc2nncc(SCc3ccccc3Cl)c2c1,inconclusive: 51.6%
12,Cc1ccc(N=N/C(=C\O)C(=O)c2ccc(Cl)cc2)cc1,inconclusive: 58.9%
13,CC(C)c1nc(SCC(=O)NC2CCCC2)c2ccccc2n1,inactive: 6.13%
14,COC(=O)c1nn(-c2ccccc2)c(Cl)c1/C=N/OCc1ccc(C)cc1,inconclusive: 50.5%
15,CSc1ccccc1OCc1cc(C(=O)NCCCc2ccccc2)no1,active: 57.9%
16,COc1ccccc1N1CCN(C(=O)c2oc3ccc(Br)cc3c2C)CC1,inconclusive: 54.3%
17,COc1ccccc1CNC(=O)c1cc(-c2ccccc2C)nn1CC1CC(c2cccnc2)=NO1 (stereo unspecified),inconclusive: 50.1%
18,Cc1ccc(S(=O)(=O)N(Cc2ccc(F)cc2)Cc2ccco2)cc1,inconclusive: 51.6%
